# Data: PubChem BioAssay AID485281 (National Center for Advancing Translational Sciences (NCATS), 2010)
# Screen size: about 350,000 compounds; about 260 (0.074%) were called active. The shares of active, inactive and inconclusive entries below differ from those in the screen. Calls follow the shape of the dose curve; as a rule, active = well fitted inhibition curve with a large enough effect; inconclusive = small, poorly fitted or top-dose-only effect; inactive = no such curve, though single readings can be large or run the other way. A potency beside an inconclusive call is a rough fit, not a confirmed value.
# Molecular target: Ferritin light chain (Equus caballus) (UniProt P02791)
# Assay: qHTS Assay for Identification of Novel General Anesthetics; also: nearly all actives have a fitted effect of over 20% in size
# Details: apoferritin/1-aminoanthracene competitive binding, fluorescence; series mostly up to 77.5 µM
# Method in brief: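 In PBS, apoferritin at 10 uM is loaded with 1-AMA from a 50% saturated solution. After 10 min of compound exposure at ambient temperature, reduced 535 nm fluorescence indicates probe displacement.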
# Potency is read from the fitted curve at half-maximal effect; tags tell the direction and shape of the fitted curve.
# Chain of UniProt P02791 (P02791 whole entry, looked up): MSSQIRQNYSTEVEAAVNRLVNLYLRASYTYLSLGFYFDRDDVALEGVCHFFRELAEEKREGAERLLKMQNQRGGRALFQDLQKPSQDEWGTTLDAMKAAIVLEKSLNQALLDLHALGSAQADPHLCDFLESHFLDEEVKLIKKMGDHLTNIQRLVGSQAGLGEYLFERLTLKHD
row,SMILES,Potency
1,Nc1nc(SCc2c(Cl)cccc2Cl)n[nH]1,"inconclusive: 11.2 µM [inhibitor, partial curve]"
2,Cc1ccc(NC(=O)CSc2nnc(-c3cnccn3)n2Cc2ccco2)cc1,"inconclusive: 35.5 µM [inhibitor, partial curve]"
3,O=C(CNC(=O)c1ccccc1Cl)OCC(=O)N1CCc2ccccc21,"inconclusive: 25.1 µM [inhibitor, partial curve]"
4,CCC(Sc1nnc(-c2ccc(OC)c(OC)c2)c(-c2ccc(OC)c(OC)c2)n1)C(=O)NC1CCCC1 (stereo not drawn),"inconclusive: 3.16 µM [inhibitor, partial curve]"
5,CCCOc1ccc(Oc2nc(NCC(C)C)nc(N(C)C)n2)nn1,"inconclusive: 56.2 µM [inhibitor, single point]"
6,On1onc2c3cc(-c4ccccc4)nc3ccc21,"inconclusive: 28.2 µM [inhibitor, single point]"
7,COc1ccc(/C=N/NC(=O)CCCOc2ccc(Cl)cc2Cl)cc1[N+](=O)[O-],"inconclusive: 3.98 µM [inhibitor, full curve]"
8,O=C(OCn1ncc(Cl)c(Cl)c1=O)c1cccc(C(F)(F)F)c1,"inconclusive: 39.8 µM [inhibitor, partial curve]"
9,COc1ccc(-c2onc3ccc(C(=O)/C=C/N(C)C)cc23)cc1,inactive
10,Cc1ccc(O)c(NC(=S)NC(=O)c2ccccc2Cl)c1,"inconclusive: 22.4 µM [inhibitor, partial curve]"
11,O=C(Cn1nc(C(F)(F)F)c2c1CCCC2)NCc1ccco1,"inconclusive: 44.7 µM [inhibitor, single point]"
12,S=C(Nc1cccc(Cl)c1Cl)NC1CCN(Cc2ccccc2)CC1,"inconclusive: 12.6 µM [inhibitor, partial curve]"
13,CN(C)c1c([N+](=O)[O-])cc2[nH]c(=O)[nH]c2c1[N+](=O)[O-],"inconclusive: 35.5 µM [inhibitor, partial curve]"
14,CCCCCCCCCCCCN1C/C(=C\C(=O)OCC)c2cc(C(F)(F)F)ccc2S1(=O)=O,"inconclusive: 14.1 µM [inhibitor, partial curve]"
15,CC(C)(C)c1ccc(/C=C/C(=O)NC2CCS(=O)(=O)C2)cc1 (stereo not drawn),"inconclusive: 28.2 µM [inhibitor, single point]"
16,OCCNCCNCc1ccc(-c2ccccc2)cc1,"inconclusive: 28.2 µM [inhibitor, partial curve]"
17,COc1ccc(-c2[nH]ncc2CN2CCCC(C(=O)c3ccc(OC)cc3OC)C2)cc1 (stereo not drawn),inactive
18,C=CCNC(=O)c1scc2c1CCCC2,"inconclusive: 39.8 µM [inhibitor, partial curve]"
19,COc1ccc(OCC(=O)NNC(=S)NC(=O)C2CCCCC2)cc1,"inconclusive: 20 µM [inhibitor, partial curve]"
20,O=C1Cc2ccccc2C(c2ccc(Br)cc2)N1 (stereo not drawn),"inconclusive: 25.1 µM [inhibitor, partial curve]"
21,O=C(/C=C/c1ccccc1)Oc1ccccc1C(=S)N1CCOCC1,"inconclusive: 28.2 µM [inhibitor, partial curve]"

row,SMILES,Potency
1,C/C(=N\OCC(=O)N/N=C/c1ccc(C)cc1O)c1cccs1,"inconclusive: 11.2 µM [inhibitor, partial curve]"
2,CCOC(=O)C1CCN(C(=O)C2(NC(=O)Nc3ccc(F)cc3F)CCCCC2)CC1,inactive
3,CCOC(=O)N1CCN(CC(=O)Nc2ccc(Oc3ccccc3)cc2)CC1,"inconclusive: 35.5 µM [inhibitor, single point]"
4,CCOc1ccc(N=C2NC(=O)C(CC(=O)Nc3ccccc3)S2)cc1 (stereo not drawn),"inconclusive: 35.5 µM [inhibitor, single point]"
5,COc1ccc(CC(=O)N2CCc3cc(OC)c(OC)cc3C2COc2ccc3c(C)cc(=O)oc3c2)cc1OC (stereo not drawn),"inconclusive: 3.55 µM [inhibitor, full curve, poor fit]"
6,Cc1ccc(C2=NN(C(=O)c3ccco3)C(O)(C(F)(F)F)C2)cc1 (stereo not drawn),"inconclusive: 35.5 µM [inhibitor, partial curve]"
7,CCCOc1ccc(-c2c(C(=O)N/N=C(\C)COc3ccccc3)nnn2-c2nonc2N)cc1,"inconclusive: 15.8 µM [inhibitor, partial curve]"
8,Cc1cc(C)n(-c2nc(SCCN(C)C)c3c4c(sc3n2)CCCC4)n1,"inconclusive: 44.7 µM [inhibitor, partial curve]"
9,COC(=O)c1ccc(Cn2c(SCc3ccc(F)cc3)nc3ccncc32)cc1,"inconclusive: 25.1 µM [inhibitor, partial curve]"
10,CC(=O)c1cnc2nc(SCc3cccc(C)c3)nn2c1C,"inconclusive: 28.2 µM [inhibitor, partial curve]"
11,Cc1nn(-c2cccc(C(F)(F)F)c2)c(=O)c2ccccc12,"inconclusive: 20 µM [inhibitor, partial curve]"
12,CCN(CC(=O)NC1CCS(=O)(=O)C1)S(=O)(=O)c1ccc(C)c(C)c1 (stereo not drawn),inactive
13,CC(=O)c1cccc(NC(=O)Cn2nc(-c3ccccc3Cl)ccc2=O)c1,"inconclusive: 28.2 µM [inhibitor, partial curve]"
14,CCc1ccc(C(=O)COC(=O)CNC(=O)COc2ccccc2)cc1,"inconclusive: 28.2 µM [inhibitor, single point]"
15,Cc1ccc(CNC(=O)c2ccccc2N)cc1,"inconclusive: 31.6 µM [inhibitor, single point]"
16,O=C(CSCc1ccc(Cl)cc1)N/N=C/c1ccco1,"inconclusive: 15.8 µM [inhibitor, partial curve]"
17,O=C(CCc1nnc(CCCCc2ccccc2)o1)NCCN1CCOC1=O,"inconclusive: 50.1 µM [inhibitor, single point]"
18,Cc1ccc(C(=O)N/C(=C\c2ccc(-c3cccc([N+](=O)[O-])c3)o2)C(=O)NCCCN2CCOCC2)cc1,"inconclusive: 35.5 µM [inhibitor, partial curve, poor fit]"
19,COc1ccc(CNC(=O)C2CCCN(c3nnc(C)c4c(C)n(-c5ccc(C)cc5)nc34)C2)cc1 (stereo not drawn),inactive
20,Oc1ccc(Cl)cc1CNc1cnc2ccccc2c1,"inconclusive: 25.1 µM [inhibitor, partial curve]"
21,Cc1nn(Cc2ccc(F)cc2)c(C)c1NC(=O)c1cnn2c1NC(c1ccccc1)CC2C(F)(F)F (stereo not drawn),"inconclusive: 12.6 µM [inhibitor, partial curve, poor fit]"

row,SMILES,Potency
1,CC(C)C[C@H](NC(=O)[C@H](Cc1c[nH]c2ccccc12)NC(=O)[C@H](CCCCN)NC(=O)CNC(=O)[C@H](CC(C)C)NC(=O)[C@H](CO)NC(=O)[C@@H](N)Cc1cnc[nH]1)C(=O)NCC(=O)N[C@@H](Cc1cnc[nH]1)C(=O)N1CCC[C@H]1C(=O)N[C@@H](CC(=O)O)C(=O)N[C@@H](CCCCN)C(=O)N[C@@H](Cc1ccccc1)C(=O)O,inactive
2,CC(C)Cc1ccc(C(C)C(=O)Nc2ccc(O)cc2)cc1 (stereo not drawn),"inconclusive: 31.6 µM [inhibitor, partial curve]"
3,COc1ccccc1NC(=O)CN(c1ccc(C)cc1)S(=O)(=O)c1c(C)n[nH]c1C,"inconclusive: 35.5 µM [inhibitor, partial curve]"
4,CC(=O)Nc1ccc(-c2csc(N/N=C(/C)c3ccccc3)n2)cc1,inactive
5,Cc1cc(C)cc(NC(=O)c2c(C)oc3nc(C)nc(N4CCCC4)c23)c1,inactive
6,Cc1cccc(CC(=O)N2CCN=C2SCc2ccc([N+](=O)[O-])cc2)c1,"inconclusive: 22.4 µM [inhibitor, partial curve]"
7,COc1cccc(Cn2c(-c3nonc3NC(C)=O)nc3ccccc32)c1,"inconclusive: 28.2 µM [inhibitor, partial curve]"
8,COc1cccc(-c2noc(-c3cc(C(C)C)[nH]n3)n2)c1OC,inactive
9,COc1cc(/C=N/NC(=O)c2ccc(-c3ccccc3)cc2)cc(OC)c1OC,inactive
10,CCOC(=O)c1cccc(NC(=O)COc2ccc([N+](=O)[O-])cc2)c1,"inconclusive: 25.1 µM [inhibitor, partial curve]"
11,Oc1ccc(Cl)cc1CNc1ccccn1,"inconclusive: 11.2 µM [inhibitor, partial curve]"
12,O=C(c1ccncc1)N1CCN(C(=O)c2cccc3ccccc23)CC1,inactive
13,CCOC(=O)C1CCCN(Cc2ccc(OCc3ccccc3)c(OC)c2)C1 (stereo not drawn),"inconclusive: 50.1 µM [inhibitor, partial curve, poor fit]"
14,CC(=O)Nc1cc2nn(-c3ccccc3)nc2cc1C,inactive
15,COc1ccc(OCCNc2cc(N3CCOCC3)ccc2[N+](=O)[O-])cc1,"inconclusive: 39.8 µM [inhibitor, partial curve]"
16,CCc1ccc2nc(N(CCCN(C)C)C(=O)c3ccc(S(=O)(=O)N4CCc5ccccc5C4)cc3)sc2c1,"inconclusive: 35.5 µM [inhibitor, single point]"
17,N#CC(c1ccccc1)c1ccc2c(C(F)(F)F)cc(C(F)(F)F)nc2n1 (stereo not drawn),"inconclusive: 31.6 µM [inhibitor, partial curve]"
18,CC1=CC(C)(C)N=C(Nc2ccc(C)cc2)S1,"inconclusive: 50.1 µM [inhibitor, single point]"
19,COc1ccccc1NC(=O)Cn1nc(-c2ccc(Cl)cc2)c2ccccc2c1=O,"inconclusive: 12.6 µM [inhibitor, partial curve]"
20,O=C(NCc1ccccc1)C(=O)Nc1c2c(nn1-c1ccccc1)CSC2,"inconclusive: 5.62 µM [inhibitor, partial curve]"
21,COc1ccc(S(=O)(=O)N2CCCCC2)cc1NC(=O)c1ccco1,inactive
